{"source": "paper PMC4336329", "about": "(PLoS ONE, 2015)", "note": "About 2,200 (0.71%) of roughly 310,000 compounds showed an effect of 50% or more. Effects have a minus sign here. This is one part of the list.", "data": [{"molecular_target": "human ether-à-go-go-related gene (hERG) potassium channel (human, UniProt Q12809)", "sequence (Q12809 whole entry, looked up)": "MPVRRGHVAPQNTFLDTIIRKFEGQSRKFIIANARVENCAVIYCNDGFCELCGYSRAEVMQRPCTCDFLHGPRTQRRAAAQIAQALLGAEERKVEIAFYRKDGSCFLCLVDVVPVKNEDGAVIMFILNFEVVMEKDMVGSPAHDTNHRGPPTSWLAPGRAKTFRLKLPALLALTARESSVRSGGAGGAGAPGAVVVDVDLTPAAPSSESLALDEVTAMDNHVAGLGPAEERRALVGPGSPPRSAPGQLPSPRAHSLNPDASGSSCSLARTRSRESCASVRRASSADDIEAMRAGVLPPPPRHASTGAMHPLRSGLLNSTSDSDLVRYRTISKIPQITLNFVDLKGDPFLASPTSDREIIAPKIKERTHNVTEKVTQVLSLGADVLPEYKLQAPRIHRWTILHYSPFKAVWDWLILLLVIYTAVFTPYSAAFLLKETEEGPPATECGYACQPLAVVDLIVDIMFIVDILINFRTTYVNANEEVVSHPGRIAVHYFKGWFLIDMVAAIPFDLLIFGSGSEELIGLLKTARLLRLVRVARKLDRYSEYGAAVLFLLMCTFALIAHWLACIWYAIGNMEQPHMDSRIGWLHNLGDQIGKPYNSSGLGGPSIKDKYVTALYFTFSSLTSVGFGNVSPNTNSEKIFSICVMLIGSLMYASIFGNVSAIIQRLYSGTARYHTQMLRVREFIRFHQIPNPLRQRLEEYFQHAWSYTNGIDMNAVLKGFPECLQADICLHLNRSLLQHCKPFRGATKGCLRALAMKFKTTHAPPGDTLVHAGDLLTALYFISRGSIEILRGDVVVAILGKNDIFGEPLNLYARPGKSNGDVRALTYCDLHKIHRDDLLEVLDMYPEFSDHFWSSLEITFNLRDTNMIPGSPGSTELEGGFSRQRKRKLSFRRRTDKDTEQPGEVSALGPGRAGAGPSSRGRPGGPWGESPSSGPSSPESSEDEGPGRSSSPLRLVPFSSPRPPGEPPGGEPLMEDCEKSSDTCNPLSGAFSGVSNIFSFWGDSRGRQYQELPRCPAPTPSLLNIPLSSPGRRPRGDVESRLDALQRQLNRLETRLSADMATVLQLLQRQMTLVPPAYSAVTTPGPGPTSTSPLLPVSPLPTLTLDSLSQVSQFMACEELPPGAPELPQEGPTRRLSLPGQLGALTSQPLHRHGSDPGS", "assay": "primary screen, population patch clamp on CHO cells stably expressing hERG", "units": {"hERG current change (%, negative = inhibition) at 1uM": "%"}, "values": [{"smiles": "Cc1ccc(OCCCC(=O)Nc2ccc(Cl)c(S(=O)(=O)N3CCOCC3)c2)cc1", "hERG current change (%, negative = inhibition) at 1uM": 5.04}, {"smiles": "COCc1nnc(NC(=O)CCS(=O)(=O)c2ccccc2)s1", "hERG current change (%, negative = inhibition) at 1uM": 15.4}, {"smiles": "CCSc1nnc(NC(=O)C(Cc2ccccc2)n2cccc2)s1", "note": "(centres unmarked)", "hERG current change (%, negative = inhibition) at 1uM": 4.39}, {"smiles": "Cc1cc(C)cc(C(=O)N2CCN=C2SCc2ccc([N+](=O)[O-])cc2)c1", "hERG current change (%, negative = inhibition) at 1uM": 9.72}, {"smiles": "O=c1[nH]c2cc3c(cc2cc1CN(CCc1ccccc1)Cc1nnnn1CC1CCCO1)OCO3", "note": "(centres unmarked)", "hERG current change (%, negative = inhibition) at 1uM": -6.08}, {"smiles": "COc1ccc(NC(=O)C2=CC(c3ccc(C)cc3)=NS(=O)(=O)N2C)cc1", "hERG current change (%, negative = inhibition) at 1uM": 8.61}, {"smiles": "COc1ccc(/C=N/NC(=O)c2ccncc2)cc1CN1CCN(c2ccc(F)cc2)CC1", "hERG current change (%, negative = inhibition) at 1uM": -54.2}, {"smiles": "Cc1ccc(CNC(=O)Cc2ccc(Br)cc2)cc1", "hERG current change (%, negative = inhibition) at 1uM": 16.4}, {"smiles": "CCCNC(=O)C1CCN(S(=O)(=O)c2ccc3c(c2)OCCO3)CC1", "hERG current change (%, negative = inhibition) at 1uM": 2.83}, {"smiles": "COCCCNC(=S)NCCc1ccc(F)cc1", "hERG current change (%, negative = inhibition) at 1uM": 11.6}, {"smiles": "CCC(C)NCCCCOc1ccc(Br)cc1.O=C(O)C(=O)O", "note": "(centres unmarked)", "hERG current change (%, negative = inhibition) at 1uM": -0.232}, {"smiles": "Cc1ccc(-n2[nH]c(C)c(C=Nc3ccc(S(=O)(=O)Nc4nccs4)cc3)c2=O)cc1C", "hERG current change (%, negative = inhibition) at 1uM": 10.3}, {"smiles": "Cc1ccc(S(=O)(=O)CCC(=O)Nc2ccc(Br)cc2)cc1", "hERG current change (%, negative = inhibition) at 1uM": 9.15}, {"smiles": "CCCSc1nnc(-c2cnn(-c3ccccc3)c2-n2cccc2)n1C", "hERG current change (%, negative = inhibition) at 1uM": -3.65}, {"smiles": "COc1cccc(CNC(=O)c2ccc(CS(=O)(=O)Cc3ccccc3C)o2)c1", "hERG current change (%, negative = inhibition) at 1uM": 9.33}, {"smiles": "CCc1ccc2c(CN3CCOCC3)cc(=O)oc2c1", "hERG current change (%, negative = inhibition) at 1uM": -4.5}, {"smiles": "NC(=S)Nc1cccc(O)c1", "hERG current change (%, negative = inhibition) at 1uM": 10.2}, {"smiles": "C/C(=N\\NC(=O)c1cccc2ccccc12)c1cccs1", "hERG current change (%, negative = inhibition) at 1uM": 1.5}, {"smiles": "COc1ccc(CNC(=O)COC(=O)c2ccc(OCc3c(C)noc3C)cc2)cc1OC", "hERG current change (%, negative = inhibition) at 1uM": 16.6}, {"smiles": "C[C@]12C(=O)N(c3ccc(Cl)cc3)C(=O)N1[C@@H]1c3ccccc3OC[C@@H]1[C@H]2c1ccccc1", "hERG current change (%, negative = inhibition) at 1uM": 10.9}, {"smiles": "Cc1oc(/N=C/c2ccc(O)cc2O)c(C#N)c1C", "hERG current change (%, negative = inhibition) at 1uM": 16}, {"smiles": "COc1ccccc1-c1cc(C(=O)N2CCCCC2)no1", "hERG current change (%, negative = inhibition) at 1uM": 1.25}, {"smiles": "COc1ccc(Oc2nc3c(c(=O)n(C)c(=O)n3C)n2C)cc1", "hERG current change (%, negative = inhibition) at 1uM": 18.2}, {"smiles": "CN(CCc1ccccn1)C(=O)CCC1CCCN(C(=O)c2c3c(nn2C)CCCC3)C1", "note": "(centres unmarked)", "hERG current change (%, negative = inhibition) at 1uM": 9.24}, {"smiles": "CCCCOc1ccc(C(=O)NCC(=O)NC2CCC(C)CC2)cc1", "note": "(centres unmarked)", "hERG current change (%, negative = inhibition) at 1uM": -4.83}, {"smiles": "CCc1ccc(-c2csc(-c3c[nH]c4ccccc34)n2)cc1", "hERG current change (%, negative = inhibition) at 1uM": 6.97}, {"smiles": "COc1ccc(NC(=O)CN(C)C(=O)CSCC(=O)Nc2ccc(C)cc2)cc1", "hERG current change (%, negative = inhibition) at 1uM": 16.4}, {"smiles": "Cc1c(Cl)cccc1NC(=O)CSCc1cc(=O)[nH][nH]1", "hERG current change (%, negative = inhibition) at 1uM": -2.49}, {"smiles": "Cc1ccccc1NC(=O)CSc1nnc(Cc2ccccc2)c(=O)n1N", "hERG current change (%, negative = inhibition) at 1uM": 14.5}, {"smiles": "Cc1c(NC(=O)CSCc2ccccc2)cccc1C(=O)O", "hERG current change (%, negative = inhibition) at 1uM": 19.7}, {"smiles": "O=C1CN(C(=O)COC(=O)c2cc(S(=O)(=O)N3CCOCC3)ccc2Cl)c2ccccc2N1", "hERG current change (%, negative = inhibition) at 1uM": -2.2}, {"smiles": "CCN(C(=O)Cn1c(=O)oc2cc(S(=O)(=O)N3CCOCC3)ccc21)c1ccccc1", "hERG current change (%, negative = inhibition) at 1uM": 8.21}, {"smiles": "CC(C)(CN1CCc2ccccc2C1)NS(=O)(=O)c1ccc(Cl)cc1", "hERG current change (%, negative = inhibition) at 1uM": 8.91}, {"smiles": "CCCCN(C(=O)Cc1coc2cc(C)c(C)cc12)c1c(N)n(Cc2ccccc2)c(=O)[nH]c1=O", "hERG current change (%, negative = inhibition) at 1uM": -1.96}, {"smiles": "CC(=O)Nc1cc(C(=O)OCC(=O)c2ccc(Cl)cc2Cl)ccc1C", "hERG current change (%, negative = inhibition) at 1uM": 15.3}, {"smiles": "Cn1ncc(C#N)c1NC(=O)C1CC(c2c(F)cccc2Cl)=NO1", "note": "(centres unmarked)", "hERG current change (%, negative = inhibition) at 1uM": -2.08}, {"smiles": "COc1ccc(-n2nc(C(=O)NCC(=O)N3CCCC(C)C3)c3ccccc3c2=O)cc1", "note": "(centres unmarked)", "hERG current change (%, negative = inhibition) at 1uM": 17.2}, {"smiles": "CC(NC(=O)C(C)N1c2cccc3cccc(c23)S1(=O)=O)c1ccccc1", "note": "(centres unmarked)", "hERG current change (%, negative = inhibition) at 1uM": 12.3}, {"smiles": "CCOc1ccccc1OCC(=O)Nc1nnc(COC)s1", "hERG current change (%, negative = inhibition) at 1uM": -12.4}, {"smiles": "Cc1ccc(C)n1-c1cccc(C(=O)O)c1", "hERG current change (%, negative = inhibition) at 1uM": -2.91}, {"smiles": "CC(=O)NC(CC(=O)NNC(=O)C(C)Oc1ccccc1F)c1ccccc1", "note": "(centres unmarked)", "hERG current change (%, negative = inhibition) at 1uM": 3.28}, {"smiles": "Cc1ccc(S(=O)(=O)Nc2ccccc2CNc2c(C)n(C)n(-c3ccccc3)c2=O)cc1", "hERG current change (%, negative = inhibition) at 1uM": 10.1}, {"smiles": "O=C(Cn1nc(CNc2ccc(Cl)cc2)[n+]2c1CCCCC2)c1ccc(Cl)cc1.[Br-]", "hERG current change (%, negative = inhibition) at 1uM": 3.01}, {"smiles": "Cc1cccc(-n2nnc(C(=O)NC3CCCc4ccccc43)c2N)c1", "note": "(centres unmarked)", "hERG current change (%, negative = inhibition) at 1uM": 15.9}, {"smiles": "OCC(Cl)CCl", "note": "(centres unmarked)", "hERG current change (%, negative = inhibition) at 1uM": 10.8}, {"smiles": "CCOc1ccc(CN(C)CC(=O)NNC(=O)c2ccc(Cl)cc2)cc1OC", "hERG current change (%, negative = inhibition) at 1uM": -26.2}, {"smiles": "Cc1ccc(S(=O)(=O)N2CCCSCC2)cc1", "hERG current change (%, negative = inhibition) at 1uM": 9.76}, {"smiles": "Cc1cccc(N2CCN(CCNC(=O)c3cc4c(s3)CS(=O)(=O)C4)CC2)c1C", "hERG current change (%, negative = inhibition) at 1uM": -12.3}, {"smiles": "C/C(=N\\NC(=O)Cc1ccc(Cl)cc1)c1cccc(NC(=O)c2cccnc2)c1", "hERG current change (%, negative = inhibition) at 1uM": 12.8}, {"smiles": "CCn1c(SCc2ccccc2F)nnc1-c1ccncc1", "hERG current change (%, negative = inhibition) at 1uM": 10.2}, {"smiles": "CN1CCN(C(=O)c2cc(Cl)ccc2NC(=O)c2ccc(Cl)cc2Cl)CC1", "hERG current change (%, negative = inhibition) at 1uM": 12.6}, {"smiles": "Cc1ccc(-c2nnn3c2nc(NC(C)C)c2ccccc23)cc1", "hERG current change (%, negative = inhibition) at 1uM": 9.78}, {"smiles": "O=C(OCc1c(Cl)cccc1Cl)c1cccnc1Cl", "hERG current change (%, negative = inhibition) at 1uM": 3.32}, {"smiles": "N#CC(C(=O)NC1CC1)c1nc2ccccc2nc1N1CCN(C/C=C/c2ccccc2)CC1", "note": "(centres unmarked)", "hERG current change (%, negative = inhibition) at 1uM": -32.6}, {"smiles": "CCN(CC)C(=O)Cn1cc(S(=O)(=O)CC(=O)Nc2ccccc2F)c2ccccc21", "hERG current change (%, negative = inhibition) at 1uM": -10.5}, {"smiles": "Cc1ccc(SCc2cc(=O)[nH]c(Nc3nc(C)c4cccc(C)c4n3)n2)cc1", "hERG current change (%, negative = inhibition) at 1uM": -3.26}]}]}
